According to the supplement of paper PMC3334620:
Whole data set: some 33,000 sequences, median “E-score (-0.5 to 0.5)” near -0.032, cut for the highest 2% near 0.36. This is one part of the list.

Molecular target: T1, Sko1 (UniProt Q02100)
T1 sequence: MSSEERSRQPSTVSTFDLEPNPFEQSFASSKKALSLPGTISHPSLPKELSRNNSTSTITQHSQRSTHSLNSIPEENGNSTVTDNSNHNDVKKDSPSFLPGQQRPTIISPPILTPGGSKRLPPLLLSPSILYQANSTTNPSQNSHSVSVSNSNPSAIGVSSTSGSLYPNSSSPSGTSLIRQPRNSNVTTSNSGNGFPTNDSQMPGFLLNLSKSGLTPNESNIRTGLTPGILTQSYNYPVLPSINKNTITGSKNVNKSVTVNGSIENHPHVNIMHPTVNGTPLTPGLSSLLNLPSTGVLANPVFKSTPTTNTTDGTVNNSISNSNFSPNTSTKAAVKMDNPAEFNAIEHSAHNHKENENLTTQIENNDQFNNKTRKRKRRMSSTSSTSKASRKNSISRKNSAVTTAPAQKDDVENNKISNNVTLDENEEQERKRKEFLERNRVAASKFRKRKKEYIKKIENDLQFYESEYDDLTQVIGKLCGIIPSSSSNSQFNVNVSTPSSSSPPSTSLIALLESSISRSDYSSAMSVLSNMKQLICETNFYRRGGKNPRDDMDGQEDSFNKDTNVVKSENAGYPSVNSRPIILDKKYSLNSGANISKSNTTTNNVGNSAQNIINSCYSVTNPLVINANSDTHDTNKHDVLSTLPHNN
Assay: PBM E-score (8-mer binding enrichment) (E-score (-0.5 to 0.5)); higher = stronger / more preferred TF binding; most listed sequences are background and not binding sites
Settings: protein concentration: 200 nM; construct: GST-full length
How it was run: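 Using PURExpress in vitro transcription/translation, GST-tagged yeast transcription factors were made in full-length or DNA-binding-domain form. These were applied at about 100-200 nM to double-stranded universal all-10-mer Agilent arrays, and bound protein was detected with fluorescent anti-GST. Scans were normalised with masliner before the Universal PBM Analysis Suite assigned E-scores to ungapped eight-base words pooled with their reverse complements.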

| Sequence | PBM E-score |
| --- | --- |
| GACGAGCC | 0.00634 |
| GAACTTTA | -0.043 |
| CGGCCACA | -0.184 |
| ACGACCCA | 0.087 |
| GCATGCTA | -0.0193 |
| ACATCTCT | 0.0591 |
| CTAGCTTC | -0.177 |
| AACATTTG | -0.0934 |
| AAAACGCG | 0.237 |
| GGCAAAAA | 0.108 |
| AGTCGTCA | 0.37 |
| ACCACCTC | -0.137 |
| TGGCCAAA | 0.104 |
| GGAGGGTA | -0.195 |
| CCCTACAA | 0.0161 |
| CGCCAGTA | -0.151 |
| CAGTTTCC | -0.191 |
| GATTCGCC | -0.112 |
| GATCGTAC | -0.115 |
| AAGGTCCG | -0.248 |
| ACCGGAGC | -0.243 |
| CGGCATCC | -0.202 |
| AAGCAGGT | -0.151 |
| CAACCTCG | -0.0507 |
| CGAATACG | 0.406 |

| Sequence | PBM E-score |
| --- | --- |
| CTGTAAAC | 0.106 |
| TAGAGGGA | -0.0431 |
| CGTATACC | 0.132 |
| ACGCCACA | 0.234 |
| ACCTCCCT | -0.249 |
| CTTCCCTC | -0.257 |
| AGTAAGTC | -0.144 |
| CCAATCTA | 0.0203 |
| AATCCCGC | -0.112 |
| GCCTGACA | -0.113 |
| CTATCTAC | 0.0822 |
| TCTGTGCA | 0.00064 |
| TACCAACA | 0.0643 |
| TGGAGAAA | -0.157 |
| GGTCAACC | -0.29 |
| CCTCAGCC | -0.226 |
| AGCTTTAA | 0.14 |
| GAATCGTA | 0.136 |
| GAGAGCAA | -0.0449 |
| AGATTACA | 0.189 |
| GCTAAACC | -0.0917 |
| ACTAAGAC | 0.0334 |
| GTTCGCGA | 0.133 |
| CTGTCCCA | -0.173 |
| CTCGTCAA | 0.0618 |

| Sequence | PBM E-score |
| --- | --- |
| GAGCCGCC | -0.22 |
| ACCGAGAC | -0.144 |
| AGTTATAC | 0.135 |
| GCATGTCA | 0.265 |
| GCTTCAAC | -0.164 |
| CGTCGAAA | 0.247 |
| GGCCGAAC | -0.34 |
| CCCTCCGG | -0.452 |
| CCAAAGAG | -0.148 |
| TCGTATAA | 0.221 |
| AAATAACC | 0.0207 |
| AATTTTGG | -0.00126 |
| GAGGTGAA | 0.033 |
| CAACCGTG | -0.089 |
| CCCACATC | -0.141 |
| ACGAGTAC | 0.222 |
| ATACGCCA | 0.329 |
| CACGCCCA | 0.0494 |
| AAGGAATA | 0.121 |
| CGGCGGGA | -0.232 |
| AGAGGAGG | -0.282 |
| AGATTGAT | -0.0863 |
| GCATAGTA | -0.016 |
| AAGACGTG | 0.291 |
| CATGTTGA | 0.304 |

| Sequence | PBM E-score |
| --- | --- |
| GCCGTCTA | -0.225 |
| ATCTGTCG | 0.0372 |
| CCATGCTA | -0.208 |
| TCTTCAAA | 0.052 |
| ATCCCTTA | 0.0973 |
| GCCTACCA | -0.262 |
| CACACCTG | -0.133 |
| ATAATGAG | 0.114 |
| AGGCACGG | -0.323 |
| CTCAGTTC | -0.0562 |
| AAACTGAT | -0.0582 |
| AAGTCTTA | 0.0815 |
| GTAACAAC | 0.146 |
| GGCGTGCA | -0.0639 |
| GCTAACAA | -0.0144 |
| CTAACAAA | 0.0575 |
| TACACACA | 0.285 |
| GTGCATGA | 0.133 |
| ACCATAGA | -0.123 |
| CGTCGATC | 0.219 |
| CTCATCGC | -0.11 |
| AACCAGTA | -0.088 |
| CAACTTAA | 0.114 |
| CCTGTGCG | -0.0469 |
| CGATGTTA | 0.124 |

| Sequence | PBM E-score |
| --- | --- |
| AGTAGAAA | 0.187 |
| CACTTACC | 0.109 |
| GAAGTAAC | 0.0276 |
| CGGGGAAA | 0.046 |
| TGCCATAA | -0.0922 |
| GTGCAACA | -0.0712 |
| TACCCTAA | 0.0632 |
| GTGTGATA | 0.156 |
| AGGTTTAT | 0.0336 |
| AGGGTACC | -0.263 |
| GCGACATA | 0.145 |
| AAGATGGC | 0.0108 |
| AATTCACC | 0.0082 |
| GATATCCC | -0.0229 |
| ACGGATCC | -0.241 |
| GATATGCA | -0.0234 |
| CAATGTGC | 0.0595 |
| ATGATCGA | 0.125 |
| GTCTGGAA | -0.158 |
| GACGTTAC | 0.365 |
| AAGGAGCG | -0.155 |
| ATTATGCC | 0.023 |
| AGCTACCC | -0.136 |
| CAGACATG | -0.0633 |
| ACAACCGA | -0.0634 |

| Sequence | PBM E-score |
| --- | --- |
| CGACCGTC | -0.0991 |
| AATTCACT | -0.0357 |
| AGCGCGCG | 0.0968 |
| ATTGAAGA | 0.209 |
| ATCCTCAC | 0.018 |
| AAACCTCG | -0.0477 |
| ACAGTCCT | -0.21 |
| AGTGAGAA | -0.0212 |
| GCTCGCTA | -0.00762 |
| AGTACCAT | -0.0224 |
| ATAGGAGG | -0.29 |
| TGGAATAA | 0.0262 |
| ACCACACT | -0.108 |
| TTACCCAA | -0.021 |
| CGGTATCC | -0.298 |
| CTGAGGGC | -0.195 |
| ATAAATAT | 0.221 |
| GACGAAGA | 0.209 |
| ATAATTGA | 0.184 |
| TAGTGCGA | -0.157 |
| CCCTCGCG | -0.228 |
| TAGCTTGA | -0.0368 |
| ATCCCTCC | -0.123 |
| CGTGTAAC | 0.0976 |
| TCGCACCA | -0.183 |

| Sequence | PBM E-score |
| --- | --- |
| GAGATTAC | 0.325 |
| CGCACGGA | 0.02 |
| CTACACCC | -0.143 |
| CGGTCGCC | -0.104 |
| GCGGCCAC | -0.217 |
| CTAGTTTC | -0.125 |
| GAACCGCC | -0.197 |
| TCCCCGGA | -0.35 |
| CGTTCGCC | -0.0406 |
| CAGGGGAA | -0.333 |
| CGTAAGGC | 0.263 |
| ACCTCGGC | -0.19 |
| ACAGTGCC | -0.133 |
| ACTTGTAG | 0.0787 |
| GACTTAGC | -0.149 |
| GAAAATTC | 0.0959 |
| TCCTCGAA | 0.0471 |
| ATCCGCAC | 0.0155 |
| AGACGCAT | 0.0335 |
| CCATAAAG | 0.00247 |
| ATCTTGCC | -0.0574 |
| CACAATCA | 0.0358 |
